Experimental data reported in PubChem BioAssay AID686978 (National Center for Advancing Translational Sciences (NCATS), 2013).
“And” between values parts separate entries of the source, which are not always exact repeats. Equal values may be shown once. About 64,000 (15%) of roughly 420,000 compounds were called active. The inconclusive results got no clear call from the source; some entries with a clear call stand among them for comparison. Calls come from the whole dose curve; as a rule, active = well fitted inhibition curve with a large enough effect; inconclusive = small, poorly fitted or top-dose-only effect; inactive = flat fitted curve, though single readings scatter. Where the call is inconclusive, the potency comes from a doubtful curve fit.

Test: qHTS for Inhibitors of human tyrosyl-DNA phosphodiesterase 1 (TDP1): qHTS in cells in absence of CPT; note: nearly all actives have a fitted effect of over 55% in size
Details: DT40 Tdp1-/- hTDP1 cells, no CPT, ATP luminescence, 48 h; activity change, negative = growth inhibition: at 46.2 µM (top of the series)
In short: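 Chicken DT40 Tdp1-/- cells complemented with human TDP1, screened without camptothecin (DMSO vehicle only), 400 cells/well. Compounds pin-transferred, cells incubated at 37 °C for at least 48 hr. Growth read as ATP-dependent luminescence (CellTiter-Glo, 30 min at RT).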
% is set by controls: 0 for no effect and ±100 for the full control effect; potency is the fitted concentration of half-maximal effect; tags give direction and shape of the fitted curve.

SMILES | Potency | activity change, negative = growth inhibition
COC(=O)C1=C(C)NC(C)=C(C(=O)OCCSc2ccccc2)[C@@H]1C | inconclusive: 23.7 µM [inhibitor, partial curve, poor fit] | –
Cc1occc1C(=O)N/N=C/c1c(O)ccc2ccccc12 | active: 1.03 µM | –
O=C(Cn1cc(S(=O)(=O)Cc2cccc(Cl)c2)c2ccccc21)Nc1ccccc1C(F)(F)F | inconclusive: 18.4 µM [inhibitor, partial curve] | –
O=S(=O)(c1ccc2nc(-c3ccccc3)[nH]c2c1)N1CCN(c2ccc(Cl)cc2)CC1 | inconclusive: 29.1 µM [inhibitor, single point] | –
CN1CCN(S(=O)(=O)c2cccc(C(=O)N(Cc3nnc(-c4ccccc4Cl)o3)C3CC3)c2)CC1 | – | inactive: -29.8%
C/C(=N\NC(=O)c1cccs1)c1ccc2c(c1)OCO2 | inconclusive: 18.4 µM [inhibitor, partial curve] | –
Cc1cccc(N2CCN(C(=O)c3ccc4c(c3)OCCO4)CC2)c1C | inconclusive: 16.4 µM [inhibitor, single point] | –
O=C(Nc1ccc([N+](=O)[O-])cc1)c1cccc(S(=O)(=O)Nc2ccccn2)c1 | inconclusive: 18.4 µM [inhibitor, partial curve, poor fit] | –
CCOc1ncccc1C(=O)NCCc1ccc(OC)cc1 | active: 20.6 µM | –
O=C(Nc1ccc(N2CCN(C(=O)c3ccco3)CC2)cc1)c1ccc(Br)cc1 | inconclusive: 18.4 µM [inhibitor, partial curve] | –
COc1ccc(C(=O)OCCc2sc[n+](CC(=O)c3ccccc3)c2C)cc1 | inconclusive: 23.1 µM [inhibitor, single point] | –
CC(C)(C)c1ccc(OCCCNC2CCCC2)cc1 | active: 29.1 µM | –
COc1ccc(NC(=O)C2CCN(S(=O)(=O)c3c(C)noc3C)CC2)cc1 | – | inactive: 3.12%
Cc1ccc(CCNC(=O)Cn2ccc3cc(S(=O)(=O)N4CCCC4)ccc32)cc1 | active: 23.1 µM | –
CN(Cc1ccccc1)CC(O)COc1ccc(CNCCc2ccncc2)cc1 (stereo not given) | inconclusive: 16.4 µM [inhibitor, single point] | –
COCC(=O)N1CCCN(c2nc3c(C)cccc3cc2C#N)CC1 | inconclusive: 23.1 µM [inhibitor, single point] | –
Cc1ccsc1/C=N/NC(=O)Cc1ccc([N+](=O)[O-])cc1 | – | inconclusive: -33.3% [inhibitor]
Cc1cccnc1C(NC(=O)C1CCN(Cc2ccc(Cl)c(Cl)c2)CC1)c1ccc(Cl)cc1 (stereo not given) | active: 4.61 µM | –
CCc1ccc2oc(-c3ccc(C)c(NC(=O)c4cc([N+](=O)[O-])ccc4N4CCOCC4)c3)nc2c1 | inconclusive: 6.51 µM [inhibitor, partial curve] | –
Cc1cccn2c(=O)c3cc(C(=O)NCCCn4ccnc4)n(C)c3nc12 | inconclusive: 13 µM [inhibitor, partial curve, poor fit] | –
Cc1ccc(/C=N/n2c(COc3ccccc3)n[nH]c2=S)o1 | – | inactive: -1.32%
N#C/C(=C\c1cc2c(cc1Br)OCO2)c1ccc(C(=O)O)cc1 | – | inactive: 13.4%
CCCCCc1ccc(-c2ccc(C(=O)O)cc2)nc1 | – | inactive: -3.48%
COc1cccc(NC(=O)c2cc3ccccc3cc2OC)c1 | inconclusive: 29.1 µM [inhibitor, single point] | –

SMILES | Potency | activity change, negative = growth inhibition
CSc1ncc(C(=O)Nc2cc(C)cc(C)c2)c(-c2ccccc2)n1 | inconclusive: 29.1 µM [inhibitor, single point] | –
COc1ccccc1N1CC(C(=O)Nc2ccc(C)c(S(=O)(=O)N3CCOCC3)c2)CC1=O (stereo not given) | – | inactive: -12.4%
CCC(CC)C(=O)N1c2ccccc2C(C)(c2ccccc2)CC1(C)C (stereo not given) | active: 23.1 µM | –
COC(=O)CN1C(=O)CSc2ccc(S(=O)(=O)Nc3ccc(F)c(Cl)c3)cc21 | inconclusive: 10.3 µM [inhibitor, partial curve] | –
COc1ccc2[nH]cc(CCNc3ccnc(-c4c(C)noc4C)n3)c2c1 | inconclusive: 32.6 µM [inhibitor, single point] | –
CCOC(=O)N1CCC(N2C(=O)c3ccccc3C2Nc2ccc(Cl)cn2)CC1 (stereo not given) | inconclusive: 29.1 µM [inhibitor, single point] | –
Clc1ccc(CSc2ccc(-c3cccs3)nn2)cc1 | – | inactive: -1.43%
CS(=O)(=O)Oc1ccc(Br)cc1/C=C1/N=C(c2ccco2)OC1=O | – | inactive: -8.26%
Cc1sc2nc(-c3cccnc3)[nH]c(=O)c2c1-c1ccccc1 | inconclusive: 13 µM [inhibitor, single point] | –
O=c1c2ccccc2nc(/C=C/c2cccc([N+](=O)[O-])c2)n1CCCO | inconclusive: 20.6 µM [inhibitor, partial curve] | –
COc1ccc(C(=O)NCCSc2c[nH]c3ccccc23)cc1OC | active: 20.6 µM | –
CCCc1ccc(OCc2nc(-c3ccc(NC(=O)c4ccco4)cc3)no2)cc1 | inconclusive: 13 µM [inhibitor, partial curve] | –
COC(=O)c1ccc(-c2ccc(/C=N/NC(=O)Cc3nnc(N)s3)o2)cc1 | inconclusive: 25.9 µM [inhibitor, partial curve] | –
Cn1/c(=N/N=C/c2ccccn2)sc2ccccc21 | inconclusive: 10.3 µM [inhibitor, partial curve, poor fit] | –
Cc1ccc(C(CCNC(C)c2cccs2)c2ccco2)cc1 (stereo not given) | active: 18.4 µM | –
COc1cccc(N2CCN(C(=O)c3cccc(NC(=O)C4=C(C)OCCS4)c3)CC2)c1 | inconclusive: 23.1 µM [inhibitor, single point] | –
COc1ccc2[nH]c3c(=O)n4c(nc3c2c1)SCCC4 | inconclusive: 20.6 µM [inhibitor, single point] | –
O=C(N[C@@H](Cc1ccccc1)C(=O)Nc1ccc(F)cc1)C1CCNCC1 | – | inactive: 10.1%
CC(C)(C)NC(=O)/C(=C\C=C\c1ccccc1)NC(=O)c1ccc([N+](=O)[O-])cc1 | inconclusive: 29.1 µM [inhibitor, single point] | –
COc1ccc(OC)c(CCNC(=O)c2c(C)oc3ncn(CC(C)C)c(=O)c23)c1 | active: 18.4 µM | –
O=CN1CCN(C(=O)c2ccc(Br)o2)CC1 | – | inactive: 7.18%
CN(C)c1ccc(C=NNC(=S)Nc2ccc(F)cc2)cc1 | active: 4.61 µM | –
COc1ccccc1NC(=S)N(C(C)C)C(C)c1ccccn1 (stereo not given) | inconclusive: 20.6 µM [inhibitor, single point] | –
CCOc1ccccc1C(=O)NC(C(=O)NCc1ccc(F)cc1)C(C)C (stereo not given) | inconclusive: 23.1 µM [inhibitor, single point] | –

SMILES | Potency | activity change, negative = growth inhibition
O=C(COC(=O)C1(c2ccc(F)cc2)CCCC1)NCc1ccc2c(c1)OCO2 | inconclusive: 25.9 µM [inhibitor, single point] | –
COc1ccc(NC(=O)CCCn2nc(C)c3c(C)n(-c4ccccc4)nc3c2=O)cc1OC | – | inactive: 27.4%
Cc1ccccc1-c1n[nH]c(=S)o1 | – | inactive: -9.89%
CCCCC(O)(c1ccc(F)cc1)C(CN1CCOCC1)c1ccc(Cl)cc1 (stereo not given) | inconclusive: 29.1 µM [inhibitor, single point] | –
CCOC(=O)c1cccc(OS(=O)(=O)Cc2ccccc2)c1 | inconclusive: 29.1 µM [inhibitor, single point] | –
CCOCCCn1c(SCC(=O)Nc2ccccc2CC)nc2ccccc2c1=O | active: 16.4 µM | –
CCOC(=O)Cn1c(=O)oc2cc(S(=O)(=O)N3CCN(c4cccc(Cl)c4)CC3)ccc21 | – | inactive: 5.87%
CCCCN(C1CCS(=O)(=O)C1)S(=O)(=O)c1cc(C)ccc1C (stereo not given) | – | inactive: -25.8%
O=S(=O)(c1ccc2c(c1)OCCO2)N1CCN(c2nc(-c3cccs3)nc3ccccc23)CC1 | inconclusive: 20 µM [inhibitor, partial curve] and inconclusive: 15.8 µM [inhibitor, partial curve] | –
CC(=O)Oc1ccc(C(=O)NC(C)CCc2ccccc2)cc1 (stereo not given) | – | inactive: -10.1%
CCN(CC)S(=O)(=O)c1cccc(-c2nnc(SCCCC(=O)c3ccccc3)o2)c1 | inconclusive: 25.9 µM [inhibitor, single point] | –
CCOC(=O)c1ccc(N2C(=O)C(O)=C(C(C)=O)C2c2ccccc2)cc1 (stereo not given) | inconclusive: 20.6 µM [inhibitor, single point] | –
O=C(NC1CCN(Cc2ccccc2)CC1)C1CCN(S(=O)(=O)c2cccc3nsnc23)CC1 | inconclusive: 15.8 µM [inhibitor, partial curve] | –
COc1ccc(O)c(C2=Nc3ccccc3N=C(c3cccs3)C2)c1 | inconclusive: 18.4 µM [inhibitor, single point] | –
CCOC(=O)c1sc2nc(NC(=O)C(C)(C)C)sc2c1C | inconclusive: 29.1 µM [inhibitor, single point] | –
Cc1cc(C)c2[nH]c(=O)c(CN(CC3CCCO3)C(=O)C3CCCO3)cc2c1 (stereo not given) | – | inactive: -7.46%
CCCc1ccc(C(O)c2ncc(-c3cccc(F)c3)[nH]2)cc1 (stereo not given) | inconclusive: 25.9 µM [inhibitor, single point] | –
COc1ccc(Cc2c(C3CCCCC3)nc3ccc(Br)cn23)c(C)c1 | active: 23.1 µM | –
CCn1c2ccccc2c2nnc(SC3CCOC3=O)nc21 (stereo not given) | – | inactive: -9.59%
O=S(=O)(NCCc1csc(-c2cccnc2)n1)c1cc(F)ccc1F | inconclusive: 29.1 µM [inhibitor, partial curve, poor fit] | –
Cc1ccc(NC(=O)c2cccc3c(=O)c4c([nH]c23)CCCC4)c(C)c1 | inconclusive: 20.6 µM [inhibitor, single point] | –
CNC(=O)CSc1nc2ccccc2c(=O)n1C1CCCCC1 | inconclusive: 29.1 µM [inhibitor, partial curve] | –
